# Reference: the supplement of paper PMC10037445
# Whole data set: some 2,900 compounds, median “IRF Lucia reporter activity, fold change vs agonist alone” near 0.9, cut for the highest 2% near 2.8. The list shows a part of the results.
# Legend:
# RAW-Dual [1] = test: IRF Lucia reporter activity, fold change vs agonist alone; cytotoxicity flag (confluency mask): not cytotoxic; higher = enhanced IRF activity
# Method in brief: (§1)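 Cytotoxic wells were those whose IncuCyte confluency was below 70% of agonist controls in both mask sets. The cells were RAW-Dual macrophages at 50,000 cells/well in DMEM on 384-well plates, dosed with 50 nL of library stock by pin tool, stimulated with a PRR agonist 1 h later, and kept at 37 °C, 5% CO2 for 20 hours. IRF and NF-κB reporter activity, as fold change over agonist-alone wells, came from supernatant read by QuantiLuc luminescence and QuantiBlue absorbance, respectively.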
# RAW-Dual [2] = test: IRF Lucia reporter activity, fold change vs agonist alone; higher = enhanced IRF activity; conditions: agonist: MPLA (TLR4) […]
# Method in brief: as §1
# RAW-Dual [3] = test: IRF Lucia reporter activity, fold change vs agonist alone; cytotoxicity flag (confluency mask): cytotoxic (confluency <70% of control); higher = enhanced IRF activity
# Method in brief: as §1
# [4] = agonist: 3'3'-cGAMP (STING) 10 ug/mL
# [5] = library stock concentration (final ~1000-fold dilution): 10 mM, cytotoxicity flag (confluency mask): not cytotoxic
smiles,measurement,setting,value
c1ccc2[nH]c(-c3cscn3)nc2c1 (library stock concentration (final ~1000-fold dilution): 10 mM),IRF Lucia reporter activity,RAW-Dual [1]; [4],0.972
same,IRF Lucia reporter activity,RAW-Dual [1]; agonist: LPS (TLR4) 0.1 ug/mL,1.01
c1ccc2[nH]c(-c3cscn3)nc2c1,IRF Lucia reporter activity,RAW-Dual [2]; [5],0.726
Cl.Nc1ccn(C2OC(CO)C(O)C2(F)F)c(=O)n1 (centres undefined),IRF Lucia reporter activity,"RAW-Dual [2]; library stock concentration (final ~1000-fold dilution): 10 mM water, cytotoxicity flag (confluency mask): cytotoxic (confluency <70% of control)",1.22
Cl.Nc1ccn(C2OC(CO)C(O)C2(F)F)c(=O)n1 (centres undefined) (library stock concentration (final ~1000-fold dilution): 10 mM water),IRF Lucia reporter activity,RAW-Dual [3]; [4],1.81
same,IRF Lucia reporter activity,RAW-Dual [3]; agonist: LPS (TLR4) 0.1 ug/mL,1.01
CC(NC(CCc1ccccc1)C(=O)O)C(=O)N1CCCC1C(=O)O.O.O (centres undefined),IRF Lucia reporter activity,RAW-Dual [2]; [5],0.952
CC(NC(CCc1ccccc1)C(=O)O)C(=O)N1CCCC1C(=O)O.O.O (centres undefined) (library stock concentration (final ~1000-fold dilution): 10 mM),IRF Lucia reporter activity,RAW-Dual [1]; [4],1.07
same,IRF Lucia reporter activity,RAW-Dual [1]; agonist: LPS (TLR4) 0.1 ug/mL,0.922
CCC(CC)CC1(C(=O)Nc2ccccc2SC(=O)C(C)C)CCCCC1 (library stock concentration (final ~1000-fold dilution): 10 mM),IRF Lucia reporter activity,RAW-Dual [1]; [4],0.755
same,IRF Lucia reporter activity,RAW-Dual [1]; agonist: LPS (TLR4) 0.1 ug/mL,1.03
CCC(CC)CC1(C(=O)Nc2ccccc2SC(=O)C(C)C)CCCCC1,IRF Lucia reporter activity,RAW-Dual [2]; [5],1.14
CC1(O)CC(c2nc(-c3ccc4ccc(-c5ccccc5)nc4c3)c3c(N)nccn23)C1 (centres undefined),IRF Lucia reporter activity,RAW-Dual [2]; [5],0.759
CC1(O)CC(c2nc(-c3ccc4ccc(-c5ccccc5)nc4c3)c3c(N)nccn23)C1 (centres undefined) (library stock concentration (final ~1000-fold dilution): 10 mM),IRF Lucia reporter activity,RAW-Dual [1]; [4],0.194
same,IRF Lucia reporter activity,RAW-Dual [1]; agonist: LPS (TLR4) 0.1 ug/mL,0.826
CNC(=O)Nc1ccc(-c2nc(N3CC4CCC(C3)O4)c3cnn(C4CCC5(CC4)OCCO5)c3n2)cc1,IRF Lucia reporter activity,RAW-Dual [2]; [5],0.992
CNC(=O)Nc1ccc(-c2nc(N3CC4CCC(C3)O4)c3cnn(C4CCC5(CC4)OCCO5)c3n2)cc1 (library stock concentration (final ~1000-fold dilution): 10 mM),IRF Lucia reporter activity,RAW-Dual [1]; [4],1.01
same,IRF Lucia reporter activity,RAW-Dual [1]; agonist: LPS (TLR4) 0.1 ug/mL,0.646
CC(C)n1c(C=CC(O)CC(O)CC(=O)O)c(-c2ccc(F)cc2)c2ccccc21 (centres undefined) (library stock concentration (final ~1000-fold dilution): 10 mM),IRF Lucia reporter activity,RAW-Dual [1]; [4],0.384
same,IRF Lucia reporter activity,RAW-Dual [1]; agonist: LPS (TLR4) 0.1 ug/mL,0.847
CC(C)n1c(C=CC(O)CC(O)CC(=O)O)c(-c2ccc(F)cc2)c2ccccc21 (centres undefined),IRF Lucia reporter activity,RAW-Dual [2]; [5],0.762
COc1cc(Nc2ncc(F)c(Nc3ccc4c(n3)N(COP(=O)(O)O)C(=O)C(C)(C)O4)n2)cc(OC)c1OC,IRF Lucia reporter activity,RAW-Dual [2]; [5],1.05
COc1cc(Nc2ncc(F)c(Nc3ccc4c(n3)N(COP(=O)(O)O)C(=O)C(C)(C)O4)n2)cc(OC)c1OC (library stock concentration (final ~1000-fold dilution): 10 mM),IRF Lucia reporter activity,RAW-Dual [1]; [4],1.01
same,IRF Lucia reporter activity,RAW-Dual [1]; agonist: LPS (TLR4) 0.1 ug/mL,0.0245
